Experimental data reported in paper PMC4336329 (PLoS ONE, 2015).
Out of some 310,000 compounds screened, about 2,200 (0.71%) showed an effect of 50% or more. The effect is printed as a negative number. This is one part of the list.

Target: human ether-à-go-go-related gene (hERG) potassium channel (human, UniProt Q12809)
Experiment: primary screen, population patch clamp on CHO cells stably expressing hERG

Chain of human ether-à-go-go-related gene (hERG) potassium channel (Q12809 whole entry, looked up): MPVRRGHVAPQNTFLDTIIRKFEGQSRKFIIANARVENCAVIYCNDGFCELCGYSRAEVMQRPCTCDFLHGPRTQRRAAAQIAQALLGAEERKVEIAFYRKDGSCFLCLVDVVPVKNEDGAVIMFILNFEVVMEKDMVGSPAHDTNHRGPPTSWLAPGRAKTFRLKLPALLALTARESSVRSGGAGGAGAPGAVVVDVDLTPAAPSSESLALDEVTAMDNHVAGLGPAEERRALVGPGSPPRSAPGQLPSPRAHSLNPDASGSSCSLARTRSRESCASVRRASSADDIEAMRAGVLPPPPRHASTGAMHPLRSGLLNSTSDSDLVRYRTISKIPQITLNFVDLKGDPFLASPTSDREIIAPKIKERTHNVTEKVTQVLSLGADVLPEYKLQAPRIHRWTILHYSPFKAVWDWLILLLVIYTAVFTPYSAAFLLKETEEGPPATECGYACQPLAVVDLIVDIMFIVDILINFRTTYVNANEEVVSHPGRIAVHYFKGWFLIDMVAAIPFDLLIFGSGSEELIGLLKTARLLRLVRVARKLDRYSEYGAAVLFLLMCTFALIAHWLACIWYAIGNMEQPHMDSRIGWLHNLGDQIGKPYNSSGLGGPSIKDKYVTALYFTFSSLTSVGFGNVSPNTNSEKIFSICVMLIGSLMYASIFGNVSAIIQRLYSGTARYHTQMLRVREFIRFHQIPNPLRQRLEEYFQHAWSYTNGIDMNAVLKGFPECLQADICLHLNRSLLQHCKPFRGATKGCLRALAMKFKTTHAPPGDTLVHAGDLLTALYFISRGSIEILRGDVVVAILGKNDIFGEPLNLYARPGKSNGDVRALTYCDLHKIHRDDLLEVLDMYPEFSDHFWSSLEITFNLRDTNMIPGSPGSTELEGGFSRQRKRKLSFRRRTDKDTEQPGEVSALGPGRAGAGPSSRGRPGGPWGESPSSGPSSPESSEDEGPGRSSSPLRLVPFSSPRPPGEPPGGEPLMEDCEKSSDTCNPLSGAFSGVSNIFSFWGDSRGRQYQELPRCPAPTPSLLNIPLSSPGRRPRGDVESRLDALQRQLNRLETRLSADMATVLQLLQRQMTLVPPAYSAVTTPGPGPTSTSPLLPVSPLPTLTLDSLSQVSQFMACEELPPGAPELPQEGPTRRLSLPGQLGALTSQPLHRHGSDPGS

Row | SMILES | hERG current change (%, negative = inhibition) at 1uM
1 | CC1(c2cccc(Br)c2)NC(=O)N(CC(=O)NCC2CCCO2)C1=O (stereo not shown) | 8.58%
2 | Cc1ccc(N2CCN(C(=O)c3cc(-c4ccc(F)cc4)[nH]c3C)CC2C)cc1 (stereo not shown) | 10.3%
3 | CCC(C)[C@H](NS(=O)(=O)c1ccc(C)cc1)C(=O)N1CCC(C(=O)N[C@@H](Cc2ccccc2)C(=O)O)CC1 (stereo partly shown) | 16.7%
4 | CCOC(=O)C1CCCN(C(=O)Cn2nc(C)n3c(cc4c(OC)cccc43)c2=O)C1 (stereo not shown) | 0.901%
5 | CCN(CC)CCOc1nnc(-c2ccc(C)cc2)c2ccccc12 | -58.4%
6 | COC(=O)C1OC2(OC1C(=O)OC)c1ccccc1-c1ccccc12 (stereo not shown) | 14.6%
7 | CCN(CC)CCOC(=O)c1ccc(NC(=O)CCCN2C(=O)/C(=C/c3cccs3)SC2=S)cc1 | 13.4%
8 | CCOC(=O)Cc1nnc(NC(=O)c2cccc(OCC)c2)s1 | 5.24%
9 | CC(C)C(OC(=O)c1oc2ccccc2c1CSC1CCCCC1)C(=O)NC(N)=O (stereo not shown) | 12.5%
10 | CCc1nnc(NC(=O)c2cc(C)oc2C)s1 | -12.5%
11 | COCCN(Cc1ccccc1)C(=O)c1cccc(S(=O)(=O)N2CCN(c3ccccc3)CC2)c1 | -8.28%
12 | CC(C)c1ccc(OCC(=O)NN2C(=O)c3ccccc3C2=O)c(Br)c1 | 21.9%
13 | O=C(O)CCS(=O)(=O)c1cc(Br)cc2c1N(C(=O)C1CC1)CC2 | 9.91%
14 | Cc1oc(-c2cccc3ccccc23)nc1CN1CCC[C@H]1CO | 12.7%
15 | COc1ccc(S(=O)(=O)Cc2ccc(C(=O)N3CCN(c4ccccc4F)CC3)o2)cc1 | -8.15%
16 | Cc1ccccc1OCC(=O)NCc1ccccc1 | 6.9%
17 | CC(=O)N1CC(C)Oc2ccc(S(=O)(=O)NC(CC(=O)O)c3ccc(C)cc3C)cc21 (stereo not shown) | 13.9%
18 | O=C(Cc1ccc(Cl)cc1)NNC(=S)NC(=O)c1cccs1 | 15.1%
19 | Cc1ccc(S(=O)(=O)n2nc(OC(=O)c3ccco3)cc2N)cc1 | 15%
20 | COc1cc(C(=O)N2CCN(c3cc(Cl)ccc3Cl)CC2)cc(OC)c1OC | 7.1%
21 | NC(=O)c1cccc(C(N)=O)n1 | 15%
22 | O=c1[nH]c(=S)n(Cc2ccc(F)cc2)c(O)c1/C=N/N1CCCCCC1 | -17.2%
23 | Cc1ccc(C(=O)N/C(=C/c2ccc(-c3cccc([N+](=O)[O-])c3)o2)C(=O)NCCCN(C)C)cc1 | -73.3%
24 | Cc1ccc(C(=O)NCc2cccs2)cc1S(=O)(=O)N1CCCCC1 | 6.79%
25 | Cc1cc(C)nc(N/N=C/c2c[nH]c3ccccc23)n1 | 24.3%
26 | CCCn1cc(C(=O)O)cn1 | 12.6%
27 | Cc1cc(C)c2nc(SCC(=O)Nc3ccccc3N3CCOCC3)c(C#N)cc2c1 | -14.9%
28 | CN(C)S(=O)(=O)c1ccc(NC(=O)C2CC(=O)N(Cc3ccccc3Cl)C2)cc1 (stereo not shown) | 11.9%

Row | SMILES | hERG current change (%, negative = inhibition) at 1uM
29 | Cc1cccn2c(=O)c(/C=C(\C#N)S(=O)(=O)c3ccccc3)c(N3CCN(Cc4ccccc4)CC3)nc12 | 8.17%
30 | CN(c1cccc(NC(=O)c2ccc(Cl)c(S(=O)(=O)N3CCOCC3)c2)c1)S(C)(=O)=O | 7.69%
31 | CC1=NN(C(=O)c2ccco2)C(O)(c2ccccc2)C1 (stereo not shown) | 14.3%
32 | Cc1ccc(-n2ncc(C#N)c2/N=C/N2CCCCCC2)cc1 | 16.8%
33 | c1csc(-c2noc(CN3CCN4CCCC4C3)n2)c1 (stereo not shown) | 7.74%
34 | Cc1cccc(NC(=O)/C(=C\c2ccco2)NC(=O)c2ccccc2)c1 | -3.55%
35 | CCS(=O)(=O)N1CCN(C(=O)CC(C)C)CC1 | 10.7%
36 | O=C(NCCc1ccccc1)C1CCC(CNS(=O)(=O)c2cccs2)CC1 (stereo not shown) | 5.07%
37 | N#CC(c1ccc(O)cc1)N1CCOCC1 (stereo not shown) | 13%
38 | CCOC(=O)c1c(CSc2ccccc2)n(C)c2cc(Br)c(OCC(O)CNC(CO)(CO)CO)cc12 (stereo not shown) | 2.39%
39 | Cc1onc(-c2ccccc2)c1C(=O)NC(=S)NNC(=O)c1ccncc1 | 9%
40 | O=C(NCC1(O)CCCCC1)C1CCC(=O)N(Cc2ccccc2F)C1 (stereo not shown) | 15.8%
41 | Cc1[nH]c2ccc(C(=O)OCC(=O)Nc3cccc(S(N)(=O)=O)c3)cc2c1C | 10.1%
42 | COC(=O)c1ccccc1NC(=O)c1cccs1 | 5.05%
43 | Cc1ccc(NC(=O)CN(C)C(=O)C(C)OC(=O)CNC(=O)c2ccc(Cl)c([N+](=O)[O-])c2)cc1 (stereo not shown) | -21.7%
44 | O=C1SC(Cc2ccccc2)C(=O)N1c1ccccc1 (stereo not shown) | 12.3%
45 | COc1ccc(CCNC(=O)CCNC(=O)c2ccc(Br)cc2)cc1OC | -0.209%
46 | CCOC(=O)c1c(C)[nH]c(NC(=O)Nc2ccc(NC(C)=O)cc2)c1C | 13.9%
47 | COc1ccc(-n2ccnc2SCC(=O)NCc2ccc(F)cc2)c(OC)c1 | 4.57%
48 | O=P(O)(O)Cc1ccccc1OP(=O)(c1ccccc1)c1ccccc1 | 0.73%
49 | CCN1C(=O)N[C@@H](c2ccc(Br)cc2)C(C(C)=O)=C1C | 12.5%
50 | CC(=O)Nc1ccc(S(=O)(=O)NCCc2cc3ccc(C)c(C)c3[nH]c2=O)cc1 | -1.43%
51 | CCOC(=O)c1c(/N=C/c2ccc(C)cc2O)sc2c1CCC2 | 10.5%
52 | COc1ccc(C(=O)NCCSc2ccc(C)cc2)cc1 | 10.7%
53 | COC(=O)c1ccc(COc2ccccc2/C=N/NS(=O)(=O)c2ccccc2)cc1 | 18.1%
54 | CC1CC(NC(=O)/C(C#N)=C/c2ccc[nH]2)CC(C)(C)C1 (stereo not shown) | 13.4%
55 | COC(=O)C1(c2ccccc2)NC(c2cccs2)C2C(=O)N(c3ccccc3)C(=O)C21 (stereo not shown) | 11.5%
